Laboratory results as given in PubChem BioAssay AID488969 (Vanderbilt High Throughput Screening Facility, 2010).
In all, about 110,000 compounds were measured (“z-score”: median about -0.1, highest 2% from about 2 on). Some of the results follow. Activity calls are given as the source filed them.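 The calls were made as follows: active = z-score in the third read window above 3 or below -3; inactive = the rest.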

Molecular target: Metabotropic glutamate receptor 8 (Rattus norvegicus) (UniProt P70579)
Assay: rat mGluR8 modulators via GIRK flux, primary screen, cell-based, thallium flux, HTS (AID 488969)
Settings: HEK293 rat mGluR8, GIRK (G protein-gated inwardly rectifying potassium channel) thallium flux, FluoZin2; at 10 µM; stronger effect = higher value; submaximal glutamate (EC20) added with thallium

Chain of UniProt P70579 (P70579 whole entry, looked up): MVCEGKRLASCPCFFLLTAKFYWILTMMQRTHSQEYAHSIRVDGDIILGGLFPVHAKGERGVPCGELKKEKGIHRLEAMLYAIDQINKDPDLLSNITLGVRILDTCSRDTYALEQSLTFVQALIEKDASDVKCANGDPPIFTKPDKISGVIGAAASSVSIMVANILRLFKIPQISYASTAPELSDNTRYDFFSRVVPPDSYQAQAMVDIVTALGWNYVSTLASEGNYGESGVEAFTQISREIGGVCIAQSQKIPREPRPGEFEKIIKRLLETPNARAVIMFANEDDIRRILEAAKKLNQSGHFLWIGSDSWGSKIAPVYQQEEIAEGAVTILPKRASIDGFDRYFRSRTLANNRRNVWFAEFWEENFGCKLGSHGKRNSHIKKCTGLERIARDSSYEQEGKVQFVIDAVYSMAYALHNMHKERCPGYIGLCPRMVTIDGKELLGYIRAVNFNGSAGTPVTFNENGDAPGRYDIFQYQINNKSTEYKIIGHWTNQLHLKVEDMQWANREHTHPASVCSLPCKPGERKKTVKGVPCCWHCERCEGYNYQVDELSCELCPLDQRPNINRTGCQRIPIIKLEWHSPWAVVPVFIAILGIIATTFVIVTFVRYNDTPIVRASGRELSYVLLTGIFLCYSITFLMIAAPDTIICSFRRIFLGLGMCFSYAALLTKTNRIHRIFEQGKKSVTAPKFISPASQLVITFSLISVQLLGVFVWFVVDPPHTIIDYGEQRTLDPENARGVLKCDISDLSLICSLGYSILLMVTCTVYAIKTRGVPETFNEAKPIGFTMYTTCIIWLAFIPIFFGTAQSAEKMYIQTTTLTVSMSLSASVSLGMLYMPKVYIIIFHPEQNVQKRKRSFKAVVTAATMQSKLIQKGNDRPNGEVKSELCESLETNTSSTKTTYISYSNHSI

| Compound | z-score |
| --- | --- |
| O=C(COc1cccc(OC(F)F)c1)Nc1ccc(SC(F)F)cc1 | -1.22 |
| O=C1C(=O)N(CCO)C(c2cccc(F)c2)/C1=C(\O)c1ccc(Cl)cc1 (stereo unspecified) | -0.349 |
| CCCCn1c(-c2cccs2)nc2nc3ccccc3nc21 | -1.11 |
| CCOc1ccccc1NC(=O)NS(=O)(=O)c1ccc(C)cc1 | -0.284 |
| O=C(c1ccccn1)N1N=C2/C(=C/c3ccccc3)CCCC2C1c1ccccc1 (stereo unspecified) | 0.405 |
| Cc1cccc(NC2=CC(=O)OC(C)C2)c1 (stereo unspecified) | -0.135 |
| O=C(CCN1C(=O)c2ccccc2C1=O)Nc1ccccn1 | -0.805 |
| COc1ccccc1C(=O)Nc1ccc(NC(=O)c2ccco2)c(C)c1 | 0.676 |
| Cc1nc(NC(=O)/C=C/c2ccccc2)n[nH]1 | -0.402 |
| CCOC(=O)c1sc(NC(=O)CSc2ncn[nH]2)c(C#N)c1C | -0.538 |
| O=C(CN1CCCCC1)Nc1ccc(S(=O)(=O)N2CCCCCC2)cc1 | 0.595 |
| COc1cc(OC)c(OC)cc1/C=N/Nc1ncnc2c1[nH]c1ccccc12 | -0.16 |
| Cc1ccc(-n2c(SCC(N)=O)nnc2-c2cccnc2)c(C)c1 | -1.28 |
| CCOCCCNC(=O)C(NC(=O)CNC(C)=O)c1ccc(C)cc1 (stereo unspecified) | 0.0565 |
| O=C(CSc1nncc2ccccc12)N1CCOCC1 | 0.132 |
| CN(C)c1ccc(-c2noc(-c3ccccc3O)n2)cc1 | -0.541 |
| O=C1C2C3C=CC(C3)C2C(=O)N1c1ccccc1OS(=O)(=O)c1ccccc1 (stereo unspecified) | -0.0815 |
| Cc1cccc(C)c1NC(=O)CN(C)CC(=O)Nc1ccccc1Br | 0.0169 |
| COC(=O)C1=C(C)N(Cc2ccc(C)cc2)C(=O)/C1=C\c1cc(OC)c(OC)c(OC)c1 | -0.349 |
| O=C(Nn1c(-c2ccccc2)nc2ccccc2c1=O)c1ccco1 | 0.0377 |
| C=CCn1c(SCC(C)=O)nnc1-c1cc(-c2ccccc2)sc1N | -0.526 |
| CC1CCN(c2ccc(C(=O)NCc3ccco3)cc2[N+](=O)[O-])CC1 | -0.684 |
| CCNS(=O)(=O)c1cc(OC)c(Cl)cc1OC | -0.117 |

| Compound | z-score |
| --- | --- |
| O=C(Nc1nnc(COc2ccccc2)s1)c1ccco1 | -0.0146 |
| NC(N)=N/N=C/c1ccc(OCc2ccccc2)cc1 | 0.177 |
| COc1ccc(C(=O)OCCNC(=O)c2ccncc2)cc1OC | 0.575 |
| CCc1ccc2c(c1)C(c1cccs1)=NNC(c1cccnc1)=N2 | -1.48 |
| CC1=C(C)CC(C(=O)c2ccccc2)C(C(=O)O)C1 (stereo unspecified) | -0.142 |
| CC1=C([N+](=O)[O-])C(c2cccc(Br)c2)C2=C(N1)c1ccccc1C2=O (stereo unspecified) | -0.467 |
| CNC(=O)NC(=O)C(C)OC(=O)CCCSc1nc2ccccc2s1 (stereo unspecified) | -0.105 |
| CCOc1ccc(CC(=O)Nc2sc(Cc3ccccc3)cc2C(N)=O)cc1OCC | -0.35 |
| CCCSC1=C(C#N)C(c2ccc(O)c(OC)c2)CC(=O)N1 (stereo unspecified) | -0.133 |
| CCOc1cc(CN2CCN(c3cccc(C(F)(F)F)c3)CC2)ccc1OC | 0.642 |
| CC(C)(C)C1CCc2c(C(=O)N/N=C/c3cccs3)csc2C1 (stereo unspecified) | active: 3.34 |
| Cc1ccc(-c2cc(C(=O)Nc3ccc(S(=O)(=O)Nc4nccs4)cc3)c3ccccc3n2)c(C)c1 | 0.00245 |
| CC(=O)OC(C(=O)N1CCN(c2ccc(F)cc2)CC1)c1ccccc1 (stereo unspecified) | -0.163 |
| COC(=O)C1=C(C)NC2=C(C(=O)CC(C)(C)C2)C1c1ccccn1 (stereo unspecified) | 0.0959 |
| NC(=O)c1cccnc1Sc1ccc(Cl)cc1 | -0.431 |
| Cc1ccnc(NS(=O)(=O)c2cnc(Cl)c(Br)c2)c1 | -0.0122 |
| COc1cccc(OC)c1OCCCc1c(C)n[nH]c1C | 0.0759 |
| COc1ccccc1CNC(=O)C1CCC1 | -0.172 |
| Cc1c(NC(=S)NCc2ccc(F)cc2)cccc1[N+](=O)[O-] | -0.287 |
| COc1ccc(C(=O)N2CCc3cc(OC)c(OC)cc3C2c2cccc([N+](=O)[O-])c2)cc1 (stereo unspecified) | -0.702 |
| Cn1cccc1Cc1nnc(SCC(=O)Nc2ccc(F)cc2)n1-c1ccc(F)cc1 | -0.84 |
| Oc1ccc(CN2CCN(c3ccccc3)CC2)c2cccnc12 | 0.529 |
| O=C(CSc1nnc(-c2ccco2)n1Cc1ccccc1)NC(=O)NCc1ccco1 | 0.635 |

| Compound | z-score |
| --- | --- |
| CC(C)(C)C(C(Oc1ccc(Cl)cc1)n1cncn1)n1nnnc1C(c1cccc(Cl)c1)N1CCCCC1 (stereo unspecified) | 0.12 |
| COC(=O)c1ccc(NC(=O)CSc2nnc(-c3ccncc3)n2C)cc1 | 0.0349 |
| Cc1nc(Cl)c(C(=O)NC(=O)Nc2cccc(C(F)(F)F)c2)c(C)c1[N+](=O)[O-] | -0.0667 |
| Cc1cc(S(=O)(=O)N2CCCC2C(=O)N2CCOCC2)c(C)cc1Cl (stereo unspecified) | -0.177 |
| Cn1c(=O)c(C(=O)CN2CCc3ccccc32)c(N)n(Cc2ccccc2)c1=O | -0.175 |
| O=P(c1ccccc1)(c1ccccc1)C(O)c1ccncc1 (stereo unspecified) | -0.175 |
| CCOc1ccc(C=O)cc1CN1CCCCC1 | 0.00477 |
| CCCc1nn2c(=O)cc(O)nc2s1 | -0.103 |
| CCc1c(-c2ccccc2)nc2nc(C)c(C)nn12 | -1.31 |
| O=C(/C=C/c1ccco1)NC1=NCCS1 | -0.065 |
| COc1ccc(CC(=O)Nc2ccc(C(=O)Nc3ccccc3C(=O)O)cc2)cc1OC | -0.364 |
| Cc1ccc(C(=O)COC(=O)CCc2ccc(S(=O)(=O)N3CCCCC3)cc2)cc1 | -0.561 |
| CCOC(=O)N1CCC(N2CCN(S(=O)(=O)c3ccc(Cl)cc3)CC2)CC1 | -0.145 |
| CC(C)(C)c1ccc(O)c(/C=N\O)c1 | -0.323 |
| CN(C(=O)c1ccc(S(=O)(=O)c2cccc(Cl)c2)c([N+](=O)[O-])c1)C1CCCCC1 | -0.539 |
| Cc1ccc2cccc(OCCOCCOc3ccccc3Br)c2n1 | -0.0438 |
| CCN1CCN(C(=O)CCc2ccc(S(=O)(=O)NCCc3ccccc3)cc2)CC1 | 0.31 |
| CC(=O)Nc1ccc(-c2cn3cc(C)ccc3n2)cc1 | 0.872 |
| O=C(O)Cc1ccc2sc(-c3ccccc3)nc2c1 | -0.00637 |
| Cc1cccc(Nc2nc(NCc3ccco3)c3ccccc3n2)c1 | 0.729 |
| COCCNC(=O)c1cn(C)c2ccc(S(=O)(=O)N(C)C3CCCCC3)cc2c1=O | -0.0633 |
| CCN(C(=O)CN1C=NS(=O)(=O)c2ccccc21)c1ccccc1 | -0.347 |
| COc1ccccc1NC(=O)NCCCl | -0.0596 |

| Compound | z-score |
| --- | --- |
| Cc1csc(NC(=O)c2cccc(S(=O)(=O)N3CCCCC3)c2)n1 | -0.0228 |
| CCOC(=O)CSc1nnc(CNc2cccc(Cl)c2)n1-c1ccccc1 | 2.85 |
| COC(=O)Cc1ccc(NC(=O)c2ccc(C)c(C)c2)cc1 | -0.304 |
| CC(C)[C@H](NS(=O)(=O)c1ccc2c(c1)OCCO2)C(=O)OCC(=O)Nc1cccc(Cl)c1Cl | -0.325 |
| CCOC(=O)C1=C(O)C(Nc2nc3ccccc3s2)(C(F)(F)F)N=C1C (stereo unspecified) | 0.0247 |
| Cc1c(N2C(=O)/C(=C/c3cccc4ccccc34)SC2=S)c(=O)n(-c2ccccc2)n1C | -0.207 |
| Cc1nc(-c2ccccc2)sc1-c1nc(-c2ccncc2)ncc1S(=O)(=O)c1ccccc1 | 0.185 |
| CC(/C=C/c1ccccc1)=N/NC(=O)c1cnccn1 | 0.287 |
| O=C(CSc1ccccn1)Nc1nncs1 | -0.329 |
| Nc1ccccc1C(=O)N=Nc1[nH]c(N)c2ccccc12 | -0.221 |
| Cc1ccc(C(=O)Nc2sc(C(=O)N(C)C)c(C)c2C#N)cc1 | 0.0599 |
| CCC(C)c1ccc(S(=O)(=O)N2CCN(C(=O)COc3ccc4c(C)cc(=O)oc4c3)CC2)cc1 (stereo unspecified) | 0.0307 |
| N#Cc1ccccc1NC(=O)c1cccc(COc2ccc(Cl)cc2Cl)c1 | -0.0216 |
| Cc1cc(F)c(F)c(C(=O)N2CCN(C)CC2)c1Cl | 0.248 |
| COc1ccccc1N1CCN(c2nc3ccccc3nc2C(C#N)C(=O)OC(C)C)CC1 (stereo unspecified) | -0.54 |
| NC12CC3CC(C1)CC(O)(C3)C2 | -0.0104 |
| Cc1cc(C)c2c3c(sc2n1)C(c1ccccc1)C(C#N)=C(N)O3 (stereo unspecified) | -0.213 |
| COc1ccc(Cc2nc(-c3ccc(Cl)cc3)no2)cc1 | -0.0987 |
| Cc1ccccc1CS(=O)(=O)Cc1ccc(C(=O)N2CCOCC2)o1 | 0.149 |
| CC(C)(C)Cc1nnc(NC(=O)c2cc(-c3ccccc3)nc3ccccc23)s1 | -0.56 |
| CN(C)c1oc(-c2ccccc2F)nc1C#N | -1.32 |
| CC(CC1CC(C)(C)OC1=O)C(=O)Nc1nncs1 (stereo unspecified) | 0.694 |
| CCC(Oc1ccccc1)C(=O)Nc1ccccn1 (stereo unspecified) | -0.398 |

| Compound | z-score |
| --- | --- |
| O=C(/C=C/c1ccc(F)cc1)NCCCN1CCN(CCCNC(=O)/C=C/c2ccc(F)cc2)CC1 | -0.123 |
| COC(=O)Cn1c(CCC(=O)O)ccc1-c1ccccc1 | -0.232 |
| Cc1ccccc1C(=O)c1cccn1CC(=O)NCc1ccc2c(c1)OCO2 | -0.139 |
| COC(=O)c1cccnc1SCc1ccccc1 | -0.304 |
| COc1cccc(N2C(=O)CC(N3CCN(S(=O)(=O)c4ccccc4)CC3)C2=O)c1 (stereo unspecified) | 0.497 |
| COc1ccc(Br)cc1C1CC(=O)N2CN(Cc3ccccc3)CSC2=C1C#N (stereo unspecified) | 0.187 |
| CCOc1ccc(-n2c(-c3ccco3)n[nH]c2=S)cc1 | 0.316 |
| O=C(NC1CCCC1)C1CCN(S(=O)(=O)c2cccc3cccnc23)CC1 | 0.151 |
| O=C(CSc1nnc(Cc2cc(=O)[nH]c(=O)[nH]2)n1-c1ccccc1)N1CCCCC1 | -0.109 |
| COc1ccc(NC(=O)C2CC(=O)NC(Nc3cccc(C)c3)=N2)cc1 (stereo unspecified) | -0.0281 |
| CC(=O)Nc1nc(-c2ccccc2)ns1 | -0.0207 |
| COc1cc2c(cc1OC)CN(c1ccc([N+](=O)[O-])cc1C#N)CC2 | -0.633 |
| COc1ccc(C(=O)N=C2CCC(C#N)=C3c4cc(OC)c(OC)cc4CCN23)cc1 | -0.0841 |
| O=C(Nc1nc2ccccc2n1Cc1ccccc1)c1ccc(COc2ccccc2[N+](=O)[O-])o1 | -0.235 |
| CCN(CC)CCNC(=O)c1ccc(Cl)c(S(=O)(=O)Nc2ccc(Cl)cc2)c1 | 1 |
| Cn1c(=O)cc(SCC(=O)N2CCN(C(=O)c3ccco3)CC2)c2ccccc21 | 0.419 |
| O=C(CCCc1nc(-c2ccccc2)no1)N1CCOCC1 | 0.382 |
| Cc1c(N)cccc1-c1nc2ccccc2[nH]1 | 0.0557 |
| CC(C)(C)c1cc(NCCCn2ccnc2)n2ncc(-c3ccc(Cl)cc3)c2n1 | 0.26 |
